Laboratory results from PubChem BioAssay AID1508624 (National Center for Advancing Translational Sciences (NCATS), 2021).
In all, about 48,000 compounds went through this assay and about 120 (0.25%) were called active. About 4% were inconclusive and are not listed. Calls follow the shape of the dose curve; as a rule, active = well fitted activation curve with a large enough effect; inconclusive = small, poorly fitted or top-dose-only effect, or another doubt; inactive = no such curve, though single readings can be large or run the other way. Some of the results follow.

Assay: Primary qHTS for Identification of Small Molecule Activators of Huntingtin-Antisense Promoter Activity; also: nearly all actives have a fitted effect of over 55% in size
Settings: HEK293 HTT-AS promoter firefly luciferase reporter, 24 h; series mostly up to 57.5 µM; activity change, positive = activation: at the top concentration
Description: Assay Provider: Russell L. Margolis M.D.
Department Neurology, Johns Hopkins University School of Medicine, Baltimore, MD
Huntington's Disease (HD) is a neurodegenerative disorder caused by a CAG repeat expansion in exon 1 of huntingtin (HTT). While there are currently no disease-modifying treatments for HD, recent efforts have focused on development of nucleotide-based therapeutics to lower HTT expression. As an alternative to siRNA or oligonucleotide methods, we hypothesized that suppression of HTT expression might be accomplished by small molecules that either (1) directly decrease HTT expression by suppressing HTT promoter activity or (2) indirectly decrease HTT expression by increasing the promoter activity of HTT-AS, the gene antisense to HTT that appears to inhibit expression of HTT.
We developed and employed a high throughput screen for modifiers of HTT and HTT-AS promoter activity using luminescent reporter HEK293 cells; of the 52,041 compounds tested, we identified 898 replicable hits. We used a rigorous stepwise approach to assess compound toxicity and the capacity of the compounds to specifically lower huntingtin protein in 5 different cell lines, including HEK293 cells, HD lymphoblastoid cells, mouse primary neurons, HD iPSCs differentiated into cortical-like neurons, and HD hESCs. We found no compounds which were able to lower huntingtin without lowering cell viability in all assays, though the potential efficacy of a few compounds at non-toxic doses could not be excluded.
SEQUENCE No. (1, 2, 3, etc.); […] (e.g., Cells, Incubation, Reagent, etc.); VALUE and DESCRIPTION.
1; Reagent; 4 uL; 2,500 Hek293 luciferase reporter cells per wells
3; Compound; 23 nL; Control inhibitor / compound library
5; Reagent; 2.5 uL; Firefly Luc reagent; Dual-Glo Luciferase Reporter Assay System (Promega)
6; Time; 10 min; room temperature incubation
7; Detection; Luminescence; FLuc
NOTES (numbers refer to sequence above)
1; High-throughput screening, measuring luminescence from a Hek293 luciferase reporter, was performed in 1,536 well white-walled tissue-culture treated plates. 2,500 cells were plated in 4 µL of Opti-MEM per well using a Multidrop Combi Reagent Dispenser (ThermoFisher).
2; Assay plates were cultured for 24 hours.
3; Control inhibitor (PTC124; final concentration of 50 uM) and compound library (at final concentrations of 460 nM - 57.5 uM) were added to the assay plate using the Kalypsis Pintool Robotic System equipped with 1536 pinheads.
4; Cells were then incubated for 24 hours at 37 degrees C prior to luminescence measurements.
5; In all cases, luminescence was measured using the Dual-Glo Luciferase Reporter Assay System (Promega) following the manufacturer's instructions.
6; Room temperature incubation.
7; Luminescence signal was obtained using the PerkinElmer ViewLux plate reader. Results were normalized to vehicle control (0% activity) and zero RLU (-100% activity).

Activity change, positive = activation, inactive:
Cc1ccc(N2C(=O)CSC23C(=O)N(CC(=O)NC2CCCCC2)c2ccccc23)cc1C (centres undefined) -7.4%, Oc1c(Br)cc(Br)c2cccnc12 -12%, Nc1nc(=O)n([C@@H]2O[C@H](CO)[C@@H](O)[C@@H]2F)cc1I -12.5%, CCOC(=O)c1c(C)oc2ncnc(Nc3cc(Cl)ccc3OC)c12 -3.59%, Cc1ccc2nc(COc3ccccc3NC(=O)COc3ccccc3Cl)cc(=O)n2c1 -8.21%, CSc1ncc(C(=O)NCc2ccc(C)cc2)c(-c2ccccc2)n1 -2.1%, Cc1ccc(CNC(=O)C2CCN(S(=O)(=O)c3c(C)noc3/C=C/c3c(C)cc(C)cc3C)CC2)cc1 6.15%, Cc1ccc(S(=O)(=O)C(CNC(=O)Cc2ccc(Cl)cc2)c2cccs2)cc1 (centres undefined) -28.8%, CCOc1ccc(CNC(=O)c2ccc3c(c2)nnn3C2CCCC2)cc1 4.86%, Cc1cccc(Cn2c(=O)n(Cc3ccc4c(c3)OCO4)c(=O)c3oc4ccccc4c32)c1 -13.8%, CCc1ccccc1NC(=O)c1cc2nc(-c3ccc(OC)c(OC)c3)cc(C(F)(F)F)n2n1 -9.07%, COc1ccccc1N1CCN(C(=O)Nc2cn(CC(C)C)c(=O)c3ccccc23)CC1 -6.62%, CCOCCCNC(=O)c1c(NC(=O)c2cc(=O)c3ccccc3o2)sc2c1CCC2 2.85%, CC(C)C(=O)Nc1cccc(C(=O)Nc2nnc(CC(C)(C)C)s2)c1 14.7% [at 11.5 µM, percent change from vehicle, -100% = no light], COC(=O)c1ccc(NC(=O)Cn2c(=O)nc(-c3ccccc3)c3ccccc32)cc1 -22.9%, COc1cc2ccccc2cc1C(=O)Nc1ccc2oc(-c3ccc(Cl)cc3)nc2c1 -20.3%, O=C(Nc1ccc(C(=O)OCc2cc(=O)n3c4c(sc3n2)CCCC4)cc1)c1ccc(Cl)cc1 2.57%, CC(C)c1ccc(NC(=O)Nc2csc3c2CCCC3)cc1 -30.4%, Cc1ccc2c(=O)cc(C(=O)Nc3c(C(=O)Nc4cccc(Cl)c4)oc4ccccc34)oc2c1 -15.7%, CCCCN(C)CC(O)Cn1cc(/C=C/C(=O)c2ccc(C)cc2)c2ccccc21 (centres undefined) -28.8%, COc1ccc(NC(=O)c2c(NCc3cccs3)sc3c2CCCC3)cc1 -10.9%, Cc1ccc(-n2c(SCC(=O)Nc3ccc4c(c3)OCCO4)nc3c([nH]c4ccccc43)c2=O)cc1 -12.8%, Cc1cccc(NS(=O)(=O)c2nnc(NC(=O)c3cccc(C)c3)s2)c1 -10.3%, CCOC(=O)c1ccc(NC(=O)CN2CCCCC2)cc1 19.5%, Cc1ccc(OCC(=O)Nc2sc3c(c2C(N)=O)CCCC3)c(C(C)(C)C)c1 -11.3%, COCCNC(=O)c1ccc(-c2nc(CN3CCc4ccccc43)c(C)o2)cc1 -34.4%, Cc1cccc(NC(=O)c2cc3c(=O)n4ccccc4nc3n2C)c1C -1.61%, CCCCNC(=O)Cn1cnc2sc(C)c(S(=O)(=O)N3CCN(c4ccccc4OC)CC3)c2c1=O 11.3%, Cc1csc2nc(COC(=O)c3ccc(NC(=O)C(C)C)cc3)cc(=O)n12 -32.9%, COc1ccccc1NC(=O)c1ncoc1-c1ccco1 9.81%, CC(C)OCCCNC(=O)CN1C(=O)COc2ccc(S(=O)(=O)N3CCOCC3)cc21 -12.8%, CC(CC(C#N)(c1ccccc1)C(C)C)N(C)C (centres undefined) -2.07%, O=C(Cn1ncc2c3ccccc3n(Cc3ccccc3F)c2c1=O)NCCCc1ccccc1 -26.6%, COC(=O)c1ccccc1NC(=O)CSc1nc2nc(C)cc(C)n2n1 -5.18%, CCOc1ccccc1C(=O)N(Cc1ccco1)Cc1ccccc1F -23.9%, Cc1ccc(C(=O)Nc2ccc(Br)cc2)cc1S(=O)(=O)NCc1ccccc1 -40.5%, CC(C)C[C@H](NC(=O)[C@H](Cc1ccccc1)NC(=O)c1cnccn1)B(O)O -21.4%, CCOc1ccccc1CNC(=O)CCCN1C(=O)c2cccnc2Oc2ccc(Cl)cc21 -22.9%, COc1ccccc1Cn1c(SCC(=O)C(C)(C)C)nc2ccccc2c1=O -18.1%, CCNC(=O)C1CCN(Cc2cc3ccccc3n2Cc2ccc(C)cc2)CC1 -27.2%, CCOC(=O)c1c(C)oc2nc(C)nc(N3CCN(c4ccc(OC)cc4)CC3)c12 -42.4%, COC(=O)CN1C(C(=O)c2ccccc2)=C(OC(=O)c2ccc(C)cc2)c2ccccc2S1(=O)=O -21.4%, Clc1cccc(CSc2ccc(-c3cccs3)nn2)c1 16.8%, O=C(c1cccn1-c1nnc(N2CCCCC2)s1)N1CCN(c2ccccc2)CC1 -9.04%, CCn1c(=O)c2sccc2n2c(CCC(=O)NCc3ccc(Cl)cc3)nnc12 -8.43%, N#Cc1ccc(CSc2nnc(-c3ccc(Br)cc3)o2)cc1 1.59%, CCS(=O)(=O)c1ccccc1C(=O)N1CCN(c2nc3ccccc3s2)CC1 -44.4%, COc1ccc(CNC(=O)CCCN2C(=O)c3cccnc3Oc3ccc(Cl)cc32)cc1 -12.3%, CCOC(=O)C1CCN(C(=O)Cn2ncc3c4ccccc4n(C)c3c2=O)CC1 -10.6%, Cc1oc(-c2cccc(Cl)c2)nc1CSCC(=O)NCc1ccccc1Cl -22.4%, CCOc1ccccc1NC(=O)CCc1c(C)nc2c3cccnc3nn2c1C -12.3%, CCc1cccc(NC(=O)Cn2ncc3c([nH]c4ccc(C)cc43)c2=O)c1 0.885%, COc1ccc(Cl)cc1C1CC(=O)Nc2cc3c(cc21)OCCO3 (centres undefined) -45.7%, CCCCNc1sc(S(=O)(=O)CCC)nc1S(=O)(=O)c1ccc(C)cc1 -21.4%, Cc1ccc(CN2C(=O)c3ccccc3Sc3ccc(C(=O)NC4CCCC4)cc32)cc1 -37.8%, CCNC(=O)c1c2c(nc3ccccc13)C(=O)N(C1CCCCC1)C2 -11.5%, O=C(Cn1c(SCc2ccccc2F)nc2cccnc21)Nc1ccc(F)c(Cl)c1 -0.177%, Cc1ccc(C(=O)N2CCc3cc(CNC(=O)CCc4ccccc4)ccc32)cc1 -45.3%, O=C(NC1CC(=O)N(c2ccccc2)C1)c1ccco1 (centres undefined) -9.82%, COc1cccc(C(=O)NCCc2csc(-c3cccc(F)c3)n2)c1OC -11.3%, CS(=O)(=O)c1ccc(C(=O)Nc2ccc(Cl)c(-c3ccccn3)c2)c(Cl)c1 -4.17%, O=C(Nc1ccc(F)cc1)Nc1ccc2snnc2c1 -22.7%, CCc1cccc(NC(=O)CN(c2ccc(C)cc2)S(=O)(=O)c2cccs2)c1 -19.4%, CCc1nc2ccc(C(=O)NCc3cccc(Br)c3)cc2nc1CC -0.375%, CCc1ccc(S(=O)(=O)Nc2cc3c(cc2N2CCOCC2)n(C)c(=O)c(=O)n3C)cc1 -20.5%, CCOc1ccc(NC(=O)C(=O)NCCc2ccccc2)cc1 13.7% [at 11.5 µM, percent change from vehicle, -100% = no light], O=C1C(c2c(O)[nH]c3ccccc23)=Nc2ccccc21 -10.6%, O=C(Cn1c(=O)n(CCCS(=O)(=O)C2CCCCC2)c(=O)c2ccccc21)Nc1ccc(F)c(Cl)c1 -12.4%, COc1ccc(C)cc1NC(=O)N1CCN(c2nnc(C)c3c(C)n(-c4ccccc4)nc23)CC1 1.83%, COCCCNC(=O)c1nn(-c2ccc(C)cc2)c(=O)n(C)c1=O -3.37%, O=C(c1cnc(N2CCCCC2)c2ccccc12)N1CCN(c2cccc(Cl)c2)CC1 -33.6%, Cc1cc(C)cc(NC(=O)CCCn2c(=O)c3cccn3c3ccccc32)c1 18%, COc1ccc(-n2ccn(Cc3ccccc3C)c(=O)c2=O)cc1 2.76%, CCc1cc2c(cc3c(=O)n(CC(=O)NC4CCCCC4)ncn32)s1 1.45%, Cc1ccc(OCC(=O)Nc2ccc3[nH]c(=O)sc3c2)cc1 7.1%, CCOc1ccc(N(C(C)C(=O)NCCSc2ccc(C)cc2)S(C)(=O)=O)cc1 (centres undefined) -25.1%, COc1cccc(C(c2sc3nc(-c4ccco4)nn3c2O)N2CCN(c3ccccc3F)CC2)c1 (centres undefined) -8%, Cc1cc(C)cc(NC(=O)C(=O)NCC(c2cccnc2)N2CCN(c3ccccc3)CC2)c1 (centres undefined) -15.5%, CCCCn1cc(S(=O)(=O)c2ccc(CC)cc2)c(=O)c2cc(F)c(N3CCOCC3)cc21 -11%, O=C1CN(C(=O)Nc2ccccc2Cl)C(c2ccccc2)c2c(sc3c2CCCC3)N1 (centres undefined) -35.1%, Cc1nn(-c2ccccc2)c2c1N(CCCC(=O)NCc1ccccc1)C(=O)CS2 -17.6%, COc1ccc(-c2cc(C(=O)NCCc3ccc(OC)c(OC)c3)c3ccccc3n2)cc1 -2.88%, COc1ccc(NC(=O)C(C)Sc2cc(-c3ccccc3)nc(C)n2)cc1Cl (centres undefined) -34.9%, COc1ccccc1NC(=O)CCn1cnc2onc(-c3ccc(F)cc3)c2c1=O -10.3%, CCCNC(=O)C1CCN(Cc2cc3ccccc3n2Cc2ccccc2)CC1 -24.1%, CC1(C)CCC(c2ccc(Cl)cc2)=C(CN2CCN(c3ccc(C(=O)NS(=O)(=O)c4ccc(N[C@H](CCN5CCOCC5)CSc5ccccc5)c(S(=O)(=O)C(F)(F)F)c4)cc3)CC2)C1 -7.36%, CC1(C)CC(=O)c2cc(-c3nc(-c4ccc(Cl)cc4)cs3)c(=O)n(-c3cccc(F)c3)c2C1 -18.3%, COc1cc(C)ccc1OCCSc1nc2ccc(NC(=O)c3ccc(C)cc3)cc2s1 -2.59%, COc1ccc(-c2ccc(CCC(=O)O)n2CC(=O)Nc2cccc(Cl)c2C)cc1 -29.8%, CC(=O)c1cccc(Nc2nn(-c3ccc(OC(F)(F)F)cc3)nc2C(C)=O)c1 3.61%, COc1ccc(CNC(=O)CCc2c(C)nc3nc(CNC(=O)OC(C)(C)C)nn3c2C)cc1 -18%, Cc1c(C(=O)N(Cc2ccc(N(C)C)cc2)Cc2ccco2)oc2cc(Br)ccc12 -1.53%, Cn1cc(C(=O)NCCc2ccccc2)c(=O)c2cc(S(=O)(=O)N3CCCCCC3)ccc21 -19.4% [at 11.5 µM, percent change from vehicle, -100% = no light], O=C(CN1C(=O)CC(c2ccco2)Sc2ccccc21)Nc1ccc(Br)cc1 (centres undefined) -28.5%
